Assay results: publication PMC10838290
These are yes or no findings as the source states them, for the method shown. In cells and extracts the contact can be indirect. Some binding calls cover weakened binding; strength is not graded here. Blank lines part the entries; values can stand above or below the binder they belong to.

Protein sequences, listed by entry. Tags and fused reporters are not part of them.
UniProt Q15327: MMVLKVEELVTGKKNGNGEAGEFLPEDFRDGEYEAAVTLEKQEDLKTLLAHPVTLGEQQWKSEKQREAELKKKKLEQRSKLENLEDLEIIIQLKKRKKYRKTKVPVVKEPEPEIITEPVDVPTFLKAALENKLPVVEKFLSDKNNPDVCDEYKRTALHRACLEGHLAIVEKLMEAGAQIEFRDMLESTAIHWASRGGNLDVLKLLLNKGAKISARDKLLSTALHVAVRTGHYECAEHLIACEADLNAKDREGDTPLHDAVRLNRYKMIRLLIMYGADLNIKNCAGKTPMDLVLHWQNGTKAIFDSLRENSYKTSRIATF

Legend:
[1] = molecular target: ANKRD1 fused with a V5-tag, expressed in HEK293 cells (human) (UniProt Q15327); assay: co-IP; V5-tag magnetic beads, 250 ug lysate of ANKRD1-overexpressing HEK293 cells digested with DNase I; 50 mM Tris-HCl pH 7.4, 150 mM NaCl, 1 mM EDTA, 1% NP-40, 1% Na-deoxycholate, 0.05% SDS; 4 °C, 12 hours; immunoblot for ANKRD1, JUN, FOSL2
[2] = molecular target: T1, c-JUN, endogenous in human dermal fibroblasts and cancer-associated fibroblasts (human (endogenous in HDFs and CAFs)), P05412; assay: proximity ligation; Duolink PLA on fixed, permeabilised cells with anti-ANKRD1, anti-JUN and anti-FOSL2 (FRA2) antibodies; HDFs infected with ANKRD1OE or CTRL vector, CAFs and matched HDFs, CAFs with shANKRD1 or ANKRD1-FANA ASO; puncta per cell; conditions: remark: other sources report otherwise
T1 chain: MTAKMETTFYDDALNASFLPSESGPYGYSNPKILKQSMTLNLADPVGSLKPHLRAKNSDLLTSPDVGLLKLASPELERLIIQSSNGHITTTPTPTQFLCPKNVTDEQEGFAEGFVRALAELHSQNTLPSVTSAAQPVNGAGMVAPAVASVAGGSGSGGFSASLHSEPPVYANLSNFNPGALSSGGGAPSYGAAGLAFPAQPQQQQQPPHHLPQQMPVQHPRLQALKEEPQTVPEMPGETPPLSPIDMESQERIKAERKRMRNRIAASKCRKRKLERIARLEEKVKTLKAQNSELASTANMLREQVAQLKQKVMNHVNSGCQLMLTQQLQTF

[3] = molecular target: ANKRD1 fused with a V5-tag, expressed in human dermal fibroblasts (human) (UniProt Q15327); assay: as above
[4] = molecular target: ANKRD1, endogenous in cancer-associated fibroblasts (human (endogenous in CAFs)) (UniProt Q15327); assay: as above

binding [1]: binds
B1: FOSL2, endogenous in HEK293 cells (protein, UniProt P15408 1-326)
chain: MYQDYPGNFDTSSRGSSGSPAHAESYSSGGGGQQKFRVDMPGSGSAFIPTINAITTSQDLQWMVQPTVITSMSNPYPRSHPYSPLPGLASVPGHMALPRPGVIKTIGTTVGRRRRDEQLSPEEEEKRRIRRERNKLAAAKCRNRRRELTEKLQAETEELEEEKSGLQKEIAELQKEKEKLEFMLVAHGPVCKISPEERRSPPAPGLQPMRSGGGSVGAVVVKQEPLEEDSPSSSSAGLDKAQRSVIKPISIAGGFYGEEPLHTPIVVTSTPAVTPGTSNLVFTYPSVLEQESPASPSESCSKAHRRSSSSGDQSSDSLNSPTLLAL

binding [2]: binds
B2: FOSL2, endogenous in human dermal fibroblasts and cancer-associated fibroblasts, P15408 1-326 (protein)
chain: MYQDYPGNFDTSSRGSSGSPAHAESYSSGGGGQQKFRVDMPGSGSAFIPTINAITTSQDLQWMVQPTVITSMSNPYPRSHPYSPLPGLASVPGHMALPRPGVIKTIGTTVGRRRRDEQLSPEEEEKRRIRRERNKLAAAKCRNRRRELTEKLQAETEELEEEKSGLQKEIAELQKEKEKLEFMLVAHGPVCKISPEERRSPPAPGLQPMRSGGGSVGAVVVKQEPLEEDSPSSSSAGLDKAQRSVIKPISIAGGFYGEEPLHTPIVVTSTPAVTPGTSNLVFTYPSVLEQESPASPSESCSKAHRRSSSSGDQSSDSLNSPTLLAL

binding [3]: binds | binding [4]: binds
B3: FOSL2, endogenous in human dermal fibroblasts and cancer-associated fibroblasts (protein, UniProt P15408 1-326)
chain: MYQDYPGNFDTSSRGSSGSPAHAESYSSGGGGQQKFRVDMPGSGSAFIPTINAITTSQDLQWMVQPTVITSMSNPYPRSHPYSPLPGLASVPGHMALPRPGVIKTIGTTVGRRRRDEQLSPEEEEKRRIRRERNKLAAAKCRNRRRELTEKLQAETEELEEEKSGLQKEIAELQKEKEKLEFMLVAHGPVCKISPEERRSPPAPGLQPMRSGGGSVGAVVVKQEPLEEDSPSSSSAGLDKAQRSVIKPISIAGGFYGEEPLHTPIVVTSTPAVTPGTSNLVFTYPSVLEQESPASPSESCSKAHRRSSSSGDQSSDSLNSPTLLAL
